Reference: PubChem BioAssay AID1458 (National Center for Advancing Translational Sciences (NCATS), 2008)
The campaign covered roughly 210,000 compounds. About 5,900 (2.8%) were called active. Inconclusive results, whose numbers are uncertain, are shown with a selection of clear calls. Calls follow the shape of the dose curve; as a rule, active = well fitted activation curve with a large enough effect; inconclusive = small, poorly fitted or top-dose-only effect; inactive = no such curve, though single readings can be large or run the other way. A potency beside an inconclusive call is a rough fit, not a confirmed value.

Test: qHTS Assay for Enhancers of SMN2 Splice Variant Expression; also: nearly all actives have a fitted effect of over 55% in size; as to activity change, positive = activation: % of control where 0% means no effect
Details: HEK293 SMN2-luciferase splicing reporter, luminescence, 30-36 h; activity change, positive = activation: at 46.1 µM (top of the series)
Summary of the method: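 HEK293 cells carry an SMN2 […]–luciferase reporter in which exon 7 inclusion puts luciferase in frame. Cells were plated 10-12 h before compound addition, then incubated 30-36 h at 37C. ONE-Glo luminescence was read; sodium butyrate at 4.5 mM final served as control.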
Potency is read from the fitted curve at half-maximal effect; tags tell the direction and shape of the fitted curve.

**Q.** Which Potency does the source give for `CN(c1ccccc1)S(=O)(=O)c1cccc(C(=O)NNC(=O)c2ccccc2)c1` here?
**A.** inactive

**Q.** Which Potency does the source give for `c1ccc2c(N3CCCCC3)nc(N3CCCCC3)nc2c1` here?
**A.** inactive

**Q.** Which Potency does the source give for `COc1ccc(NS(=O)(=O)c2cccc(-c3nnc(-c4ccccc4)o3)c2)cc1` here?
**A.** inactive

**Q.** For `O=C(Oc1ccc(F)cc1)c1nc(SCc2ccc(F)cc2)ncc1Cl`, which Potency is on record?
**A.** inactive

**Q.** Which Potency does the source give for `CC(/C=C/c1ccccc1F)=N\NC(=O)C(C)C` here?
**A.** inconclusive: 35.5 µM [activator, single point]

**Q.** For `Cn1ncc(Cl)c1C(=O)Nc1sc2c(c1C(N)=O)CCC2`, which Potency is on record?
**A.** inactive

**Q.** For `O=C1C2C3C=CC(C3)C2C(=O)N1Cc1ccccc1` (stereo unspecified), which Potency is on record?
**A.** inconclusive: 1.41 µM [activator, full curve, poor fit]

**Q.** With `Cc1ccc(NC(=O)N2C(=O)C3(OCCO3)c3ccccc32)cc1` as the compound, how does the Potency read?
**A.** inconclusive: 15.8 µM [activator, single point]

**Q.** For `COc1ccccc1N1CCN(C(=O)Cc2cccs2)CC1`, which Potency is on record?
**A.** inconclusive: 35.5 µM [activator, single point]

**Q.** For `COc1ccc(NC(=O)c2sc3nc4c(cc3c2N)CCCCCC4)cc1`, which Potency is on record?
**A.** inconclusive: 0.01 µM [activator, full curve, poor fit]

**Q.** Which Potency does the source give for `COc1ccc2c(c1)C(=O)[C@@H](OC(=O)NCc1ccco1)[C@H](c1ccc(OC)c(Br)c1)O2` here?
**A.** inactive

**Q.** With `Cc1cc(=O)n2[nH]c(-c3ccc(F)cc3)cc2n1` as the compound, how does the Potency read?
**A.** inactive

**Q.** With `O=C(NCC1CCN(c2ccc(S(=O)(=O)N3CCOCC3)cc2)CC1)c1ccc(Cl)cc1` as the compound, how does the Potency read?
**A.** inactive

**Q.** Which Potency does the source give for `COc1ccc(C2CC(c3ccc(Br)cc3)=NN2C(=S)Nc2ccccc2)cc1` (stereo unspecified) here?
**A.** inconclusive: 12.6 µM [activator, partial curve, poor fit]

**Q.** For `O=C(Nc1nnc(-c2ccccc2Cl)o1)c1ccco1`, which Potency is on record?
**A.** inconclusive: 8.91 µM [activator, partial curve, poor fit]

**Q.** With `O=C(Nc1cccc(Cl)c1Cl)c1ccc(-c2ccccc2)cc1` as the compound, how does the Potency read?
**A.** inconclusive: 7.08 µM [activator, partial curve, poor fit]

**Q.** Which Potency does the source give for `CCN(CC)S(=O)(=O)c1ccc(NC(=O)c2ccccc2N(C)S(C)(=O)=O)cc1` here?
**A.** inactive

**Q.** For `CCOc1cc(C(=S)N2CCN(C)CC2)ccc1OCC(=O)N1CCOCC1`, which Potency is on record?
**A.** inconclusive: 6.31 µM [activator, partial curve, poor fit]

**Q.** For `Cc1ccc(/C=N/Nc2nc(Cl)c(Cl)cc2Cl)s1`, which Potency is on record?
**A.** inconclusive: 17.8 µM [activator, single point]

**Q.** Which Potency does the source give for `O=C(Cn1cnc2c(oc3ccccc32)c1=O)c1ccccc1` here?
**A.** inconclusive: 11.2 µM [activator, partial curve]

**Q.** With `O=C(OCCN1CCOCC1)c1ccc2c(c1)OCCO2` as the compound, how does the Potency read?
**A.** inconclusive: 12.6 µM [activator, single point]

**Q.** With `COc1ccc(C2=NN(C(C#N)c3ccc(OC)cc3)C(c3ccccc3)C2)cc1` (stereo unspecified) as the compound, how does the Potency read?
**A.** inconclusive: 17.8 µM [activator, partial curve, poor fit]

**Q.** With `C1=C(CCNC2=NCCCCC2)CCCC1` as the compound, how does the Potency read?
**A.** inconclusive: 35.5 µM [activator, single point]

**Q.** With `CCOc1cc(C(=O)NC)cc(Br)c1OCc1ccccc1` as the compound, how does the Potency read?
**A.** inconclusive: 0.0501 µM [activator, full curve, poor fit]

**Q.** Which Potency does the source give for `CCOC(=O)C1=C(C)NC(=O)NC1c1cc(C)sc1C` (stereo unspecified) here?
**A.** inconclusive: 2.82 µM [activator, full curve, poor fit]

**Q.** Which Potency does the source give for `COc1cc(-c2nc3ccc(N4CCN(C)CC4)cc3[nH]2)cc(OC)c1OC` here?
**A.** active: 15.8 µM

**Q.** With `Nc1ncnc(Oc2ccccc2F)c1[N+](=O)[O-]` as the compound, how does the Potency read?
**A.** inconclusive: 3.16 µM [activator, single point]

**Q.** For `O=C1C2C3C=CC(CC3)C2C(=O)N1/N=C/c1ccc(O)c(O)c1` (stereo unspecified), which Potency is on record?
**A.** inconclusive: 25.1 µM [activator, single point]

**Q.** For `C/C(=N\NC(=O)c1ccn[nH]1)c1cn(C)nc1C`, which Potency is on record?
**A.** active: 11.2 µM

**Q.** For `COc1ccc(CN(C)C(C)C(=O)Nc2ccc([N+](=O)[O-])cc2Cl)cc1OC` (stereo unspecified), which Potency is on record?
**A.** inactive

**Q.** With `CCOC(=O)c1sc(NC(=O)c2ccc(S(=O)(=O)N3CCOCC3)cc2)nc1-c1ccccc1` as the compound, how does the Potency read?
**A.** inactive

**Q.** For `COc1cc2nc(C3CC3)n(NC(=O)c3ccc(F)cc3)c(=O)c2cc1OC`, which Potency is on record?
**A.** inconclusive: 0.794 µM [activator, full curve, poor fit]

**Q.** With `Cc1ccn2c(C(=O)N/N=C\c3cccs3)c(C)nc2c1` as the compound, how does the Potency read?
**A.** inconclusive: 22.4 µM [activator, single point]

**Q.** Which Potency does the source give for `Cc1ccc(-c2nc(CCN3C(=O)c4ccccc4C3=O)cs2)cc1` here?
**A.** inconclusive: 35.5 µM [activator, single point]

**Q.** For `CC(C)CSc1ncnc2c1oc1nc3c(cc12)COC(C)(C)C3`, which Potency is on record?
**A.** inconclusive: 6.31 µM [activator, single point]

**Q.** Which Potency does the source give for `Cn1ncc(Br)c1C(=O)NCc1cccs1` here?
**A.** inactive

**Q.** Which Potency does the source give for `COc1cccc(-c2nnc(-c3ccccc3NC(=O)c3cccc(C(F)(F)F)c3)o2)c1` here?
**A.** inactive

**Q.** With `CCN(CC)CCC[C@H](C)Nc1ccnc2cc(Cl)ccc12` as the compound, how does the Potency read?
**A.** inactive

**Q.** For `COC(=O)C(/C=N/OCc1ccc([N+](=O)[O-])cc1)NC(=O)c1cccc(Cl)c1` (stereo unspecified), which Potency is on record?
**A.** inconclusive: 0.316 µM [activator, full curve, poor fit]

**Q.** Which Potency does the source give for `COc1ccc2c(-c3cccnc3)cc(=O)[nH]c2c1` here?
**A.** inactive

**Q.** With `CCOc1ccccc1C(=O)Nc1c(C(=O)Nc2ccc(F)cc2)oc2ccccc12` as the compound, how does the Potency read?
**A.** inactive

**Q.** Which Potency does the source give for `Cc1occc1C(=O)NNC(=O)c1cccc(F)c1` here?
**A.** inactive

**Q.** Which Potency does the source give for `COc1cccc(NC(=O)c2cccs2)c1` here?
**A.** active: 12.6 µM

**Q.** With `CNC(=O)[C@H]1O[C@@H](n2cnc3c(NCc4ccc(N)cc4)ncnc32)[C@H](O)[C@@H]1O` as the compound, how does the Potency read?
**A.** inactive

**Q.** With `CN(C)c1nc(N)c(C(=O)Nc2cccnc2)nc1Cl` as the compound, how does the Potency read?
**A.** active: 11.2 µM

**Q.** For `C=C(C)Cn1c(SCC(=O)O)nnc1-c1ccc(C(C)(C)C)cc1`, which Potency is on record?
**A.** inconclusive: 12.6 µM [activator, partial curve]

**Q.** With `O=C(Cc1ccc(S(=O)(=O)N2CCCC2)s1)N1CCOCC1` as the compound, how does the Potency read?
**A.** inconclusive: 35.5 µM [activator, single point]

**Q.** For `CCn1c(=O)cc(OCC(=O)N2CCN(C(=O)c3ccco3)CC2)c2ccccc21`, which Potency is on record?
**A.** inconclusive: 22.4 µM [activator, single point]

**Q.** With `CCOC(=O)c1[nH]c2ccc(Br)cc2c1NC(=O)CCN1CCCC(C)(C)C1` as the compound, how does the Potency read?
**A.** inactive

**Q.** Which Potency does the source give for `COc1cc(/C=N/n2nnnc2Nc2ccccc2)cc(OC)c1OC` here?
**A.** inactive

**Q.** With `Cc1ccccc1Cn1c2ccccc2c2cnn(CC(=O)NCCc3ccccc3)c(=O)c21` as the compound, how does the Potency read?
**A.** inconclusive: 20 µM [activator, single point]

**Q.** Which Potency does the source give for `COc1ccc(CCNC(C)=O)cc1` here?
**A.** inconclusive: 35.5 µM [activator, single point]

**Q.** Which Potency does the source give for `COc1ccc(-c2c(C)nn(-c3ccccc3)c2N)cc1` here?
**A.** inconclusive: 11.2 µM [activator, partial curve]

**Q.** Which Potency does the source give for `Cn1cnnc1SCC(=O)NCCc1ccccc1` here?
**A.** inactive

**Q.** For `COC(=O)c1ccc(-c2ccc(/C=N/N3C(=O)C4C5C=CC(C6CC56)C4C3=O)o2)cc1` (stereo unspecified), which Potency is on record?
**A.** inconclusive: 35.5 µM [activator, single point]

**Q.** Which Potency does the source give for `COc1cccc(OCC(O)CN2CCC(CN3C(=O)c4cccc5cccc(c45)C3=O)CC2)c1` (stereo unspecified) here?
**A.** inactive

**Q.** Which Potency does the source give for `N#CCOc1ccc2oc(-c3ccco3)cc(=O)c2c1` here?
**A.** inactive

**Q.** With `Cc1ccc(OCCCSc2ncccn2)cc1C` as the compound, how does the Potency read?
**A.** active: 20 µM

**Q.** Which activity change, positive = activation does the source give for `CCCCc1nc2c(c3c1C[C@H](C)OC3)CN(C(=O)NCCc1c[nH]c3ccccc13)CC2` here?
**A.** inactive: -24% [at 9.22 µM]

**Q.** With `CC1(C)CC(=O)C(C=Nc2ccccc2C(=O)O)=C(O)C1` as the compound, how does the Potency read?
**A.** inconclusive: 0.0562 µM [activator, full curve, poor fit]

**Q.** Which Potency does the source give for `COc1cccc(CS(=O)(=O)c2ccccc2)c1` here?
**A.** inactive

**Q.** With `CC(=NCCc1ccccc1)C1=C(O)CSC1=O` as the compound, how does the Potency read?
**A.** inconclusive: 12.6 µM [activator, partial curve]

**Q.** With `CCOC(=O)C1CCN(C(=O)/C(C)=C\c2ccccc2)CC1` as the compound, how does the Potency read?
**A.** inconclusive: 7.94 µM [activator, partial curve]

**Q.** Which Potency does the source give for `O=C(COc1ccccc1)NCC(=O)Nc1ccc(S(=O)(=O)NCc2ccco2)cc1` here?
**A.** inconclusive: 1 µM [activator, full curve, poor fit]

**Q.** For `CCOC(=O)c1c(NC(=O)c2cccs2)sc(CC)c1-c1cccs1`, which Potency is on record?
**A.** inactive

**Q.** With `CN(C)CCCNC(=O)c1ccc(Cl)c(S(=O)(=O)N(C)c2ccccc2)c1` as the compound, how does the Potency read?
**A.** inactive

**Q.** Which Potency does the source give for `Brc1ccc(/C=N/Nc2ccc3ccccc3n2)cc1` here?
**A.** inconclusive: 35.5 µM [activator, single point]

**Q.** For `CCC(C)(C)n1nnnc1C(c1cc(OC)c(OC)c(OC)c1)N1CCN(c2ccccc2)CC1` (stereo unspecified), which Potency is on record?
**A.** inconclusive: 35.5 µM [activator, partial curve]

**Q.** With `Cc1ccc(NC(=O)C2CCN(c3cc(C)nc4c(-c5ccc(Cl)cc5)c(C)nn34)CC2)c(C)c1` as the compound, how does the Potency read?
**A.** inactive

**Q.** For `Cc1nc(NC2CCCCC2)c2nc(-c3ccccc3)n(CCCN(C)C)c2n1`, which Potency is on record?
**A.** inactive

**Q.** For `Cc1cccc(NC(=O)NC(=O)c2ccccc2)n1`, which Potency is on record?
**A.** inconclusive: 15.8 µM [activator, partial curve, poor fit]

**Q.** For `COc1cc(C(=O)NCc2nnc(SCC(=O)N3CCCCC3)o2)cc(OC)c1OC`, which Potency is on record?
**A.** inconclusive: 4.47 µM [activator, single point]

**Q.** Which Potency does the source give for `Nc1ccc2oc3ccc(N)cc3c(=O)c2c1` here?
**A.** inconclusive: 25.1 µM [activator, single point]

**Q.** Which Potency does the source give for `CCCN=C(C)c1c(-c2ccccc2)[nH]n(-c2nc3ccccc3s2)c1=O` here?
**A.** inactive

**Q.** With `CCCS/C(N)=N/N=C/c1ccccc1O` as the compound, how does the Potency read?
**A.** active: 11.2 µM

**Q.** With `Cc1ccc(NC(=O)C(Cc2c[nH]c3ccccc23)NC(=O)OCC(C)C)cc1` (stereo unspecified) as the compound, how does the Potency read?
**A.** inconclusive: 35.5 µM [activator, single point]
